Measurements as given in PubChem BioAssay AID360 (National Center for Advancing Translational Sciences (NCATS), 2006).
Hit rate of the full screen: of about 48,000 compounds, about 550 (1.1%) were called active. Inconclusive results (about 4%) are left out. Cut-off read from the data, not from the text of the source: active = potency below about 15 µM; inconclusive = mostly about 16 µM to 33 µM; inactive = weaker than that. This is one part of the list.

Each molecule was assayed against Lysosomal acid glucosylceramidase (Homo sapiens) (UniProt P04062) (assay: Glucocerebrosidase). Conditions: purified enzyme, resorufin glucoside fluorescence (screen aimed at inhibitors), 20 min.
Outline: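 Compounds titrated against 0.2 nM normal enzyme, 30 uM resorufin beta-D-glucopyranoside substrate, citrate/phosphate buffer with taurocholate and tween-20, pH 5.9. Reaction ran 20 min at room temperature; fluorescence (Ex 548/Em 600) gave AC50.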
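Note: the screen sought inhibitors.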
Potency is the fitted concentration of half-maximal effect.

Chain of UniProt P04062 (P04062 whole entry, looked up): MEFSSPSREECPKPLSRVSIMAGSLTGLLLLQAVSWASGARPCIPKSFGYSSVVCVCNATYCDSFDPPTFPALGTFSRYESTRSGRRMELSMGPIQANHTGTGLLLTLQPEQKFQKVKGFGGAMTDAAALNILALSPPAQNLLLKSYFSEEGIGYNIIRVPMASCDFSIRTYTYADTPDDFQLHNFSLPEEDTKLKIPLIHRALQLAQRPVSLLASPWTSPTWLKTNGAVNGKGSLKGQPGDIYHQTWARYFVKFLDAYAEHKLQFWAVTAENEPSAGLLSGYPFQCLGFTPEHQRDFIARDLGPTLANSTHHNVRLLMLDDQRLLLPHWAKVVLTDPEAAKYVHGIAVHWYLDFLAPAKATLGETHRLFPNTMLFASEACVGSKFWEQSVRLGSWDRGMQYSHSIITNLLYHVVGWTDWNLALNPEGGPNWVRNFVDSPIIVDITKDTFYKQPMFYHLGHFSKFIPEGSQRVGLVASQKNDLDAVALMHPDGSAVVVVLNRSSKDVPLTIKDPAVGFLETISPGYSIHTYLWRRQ

Potency, inactive:
CC(C)(C)n1c(=O)[nH]c2c(c1=O)CCC2 > 76.9 µM
COc1ccc(NC(=O)C2c3cc(OC)c(OC)cc3C(=O)N(C)C2c2cccnc2)cc1OC (stereo unspecified) > 76.9 µM
CC(=O)c1sc(NC(=O)CN2C(=O)CCC2=O)nc1C > 76.9 µM
O=C(OC(C(=O)NCc1ccc2c(c1)OCO2)c1ccc(Cl)cc1)c1ccco1 (stereo unspecified) > 76.9 µM
O=c1nc(N2CCOCC2)nc2n1CCO2 > 76.9 µM
CCn1nnc(NC(=O)c2c(OC)cccc2OC)n1 > 76.9 µM
Cc1cc(C)n(-c2nc(SCC(=O)Nc3nccs3)c3c4c(sc3n2)COC(C)(C)C4)n1 > 76.9 µM
COc1ccc(-c2csc(C3=C(O)CN(Cc4ccc(S(N)(=O)=O)cc4)C3=N)n2)cc1OC > 76.9 µM
CC1(C)Cc2noc(N)c2C(C)(C)N1O > 76.9 µM
CN(c1ccccc1C(=O)N1CCCC1)S(C)(=O)=O > 76.9 µM
CCN(C(=O)CSc1ccc2c(c1)OCCO2)C1CCS(=O)(=O)C1 (stereo unspecified) > 76.9 µM
NC(=O)C1(N2CCCCC2)CCN(CC(=O)Nc2cc(Cl)ccc2Cl)CC1 > 76.9 µM
O=C(Cn1nnc(-c2cccs2)n1)OC1CCCCC1 > 76.9 µM
O=C(C1Cc2ccccc2CN1S(=O)(=O)c1cccs1)N1CCCCCC1 (stereo unspecified) > 76.9 µM
COc1ccc(C(=O)NCC(=O)OC2CCCCC2=O)cc1 (stereo unspecified) > 76.9 µM
Cc1noc(C)c1C(=O)OCC(=O)c1ccc[nH]1 > 76.9 µM
COc1ccccc1CNS(=O)(=O)c1cccc(S(=O)(=O)N2CCOCC2)c1 > 76.9 µM
Cc1occc1-c1nnc(SCC(=O)Nc2nccs2)n1CCc1ccccc1 > 76.9 µM
COC(=O)CSc1nnc(-c2ccncc2)n1N > 76.9 µM
O=C(NCC(=O)N(CCN1CCOCC1)C(C(=O)NC1CCCC1)c1cccnc1)c1cccs1 (stereo unspecified) > 76.9 µM
CCN(CC)c1ccc2c(c1)C(=O)N(C)C2=O > 76.9 µM
CCOC(=O)CN(C(=O)CSc1nnc(COc2ccc(OC)cc2)n1C)c1ccccc1 > 76.9 µM
CCOc1ccc2ccccc2c1C(=O)N1CCN(c2ccccc2)CC1 > 76.9 µM
Clc1ccc(Cc2nn3c(Cn4nnc5ccccc54)nnc3s2)cc1 > 76.9 µM
CC(C)c1nc(SCC(=O)N2CCCC2)c2ccccc2n1 > 76.9 µM
O=C(O)Cn1nnnc1-c1ccc(F)cc1 > 76.9 µM
O=c1c2cnn(-c3ccccc3)c2ncn1Cc1ccccn1 > 76.9 µM
CCOC(=O)N1CCC2(CC1)C(C#N)=C(N)Oc1n[nH]c(CSc3ccc(C)cc3)c12 > 76.9 µM
CCOC(=O)CSC1=Nc2ccccc2C2=NC(CC(=O)NCc3ccccc3)C(=O)N12 (stereo unspecified) > 76.9 µM
Cc1ccc(-c2noc(CCC(=O)Nc3ccc(C)cn3)n2)cc1 > 76.9 µM
C=CCn1c(SCC(=O)NCc2ccc3c(c2)OCO3)nnc1C1CCCCC1 > 76.9 µM
CCOC(=O)Cc1csc(NC(=O)CSc2nnc(Cc3csc(N)n3)n2C)n1 > 76.9 µM
CCC(=O)N1CCc2cc(S(=O)(=O)NC(C(=O)NCc3ccccc3)C(C)C)ccc21 (stereo unspecified) > 76.9 µM
NC(=O)COC(=O)C(Cc1ccccc1)NS(=O)(=O)c1ccccc1F (stereo unspecified) > 76.9 µM
O=C(CSc1nc2ccccc2o1)Nc1nc2ccccc2s1 > 76.9 µM
Cc1ccccc1NS(=O)(=O)c1ccc2[nH]cc(C(=O)NCCCN3CCOCC3)c(=O)c2c1 > 76.9 µM
Cc1cc2nnc(SCC(=O)NCc3cccs3)n2c(N)n1 > 76.9 µM
COc1cccc(C(=O)N(Cc2nc(-c3ccc(C)cc3)no2)C(C)C)c1 > 76.9 µM
O=C1c2cccnc2C(O)N1Cc1ccco1 (stereo unspecified) > 76.9 µM
CC(=O)Nc1nonc1-c1nc2ccccc2n1Cc1ccccn1 > 76.9 µM
O=C(Cc1ccc(Cl)cc1)NCCN1CCCC1 > 76.9 µM
O=C(OCCN1C(=O)c2ccccc2C1=O)c1ccc(S(=O)(=O)N2CCCCCC2)cc1 > 76.9 µM
CCOc1ccc(-c2noc(-c3cccnc3)n2)cc1OC > 76.9 µM
C/C(CCc1oc2ccccc2c1-c1ccc(C)o1)=N/O > 76.9 µM
Cc1ccc(C(C)C)c(OCc2nnc3n2CCCCC3)c1 > 76.9 µM
Cc1cc(C)nc(SCc2nnc(SCC(=O)N3CCCc4ccccc43)o2)n1 > 76.9 µM
COc1cc(NC(=O)c2ccc(C)cc2)c(OC)cc1NC(=O)CN1CCOCC1 > 76.9 µM
O=C1c2ccccc2C(=O)C12Cc1ccccc1N1CCN(c3ccccc3)CC12 (stereo unspecified) > 76.9 µM
COc1ccc(-c2nc3ccccc3c(=O)n2CCCn2ccnc2)cc1 > 76.9 µM
COC(=O)Nc1nnc(SCc2ccc(C)cc2)s1 > 76.9 µM
COc1ccc(NC(=O)c2ccco2)cc1NC(=O)c1ccco1 > 76.9 µM
CCOC(=O)c1nnsc1NC(C)=O > 76.9 µM
CC1CN(C2CCCCC2)c2nc3c(c(=O)n(C)c(=O)n3C)n2C1 (stereo unspecified) > 76.9 µM
Cc1cc(C(=O)Cn2nnc3ccccc3c2=O)c(C)n1Cc1cccs1 > 76.9 µM
O=C(O)c1ccc(COc2ccc(Cl)cc2)o1 > 76.9 µM
COc1cccc2cc(C(=O)N(C)C3CCN(C)CC3)c(=O)oc12 > 76.9 µM
COc1ccc(C2(C(F)(F)F)NC(=O)N(C)C(=O)N2C)cc1 (stereo unspecified) > 76.9 µM
O=C(CSc1nnc2scc(-c3ccc(Cl)cc3)n12)NCc1ccco1 > 76.9 µM
CCCS(=O)(=O)N1CCCC(c2nc(-c3cccc(OC)c3)no2)C1 (stereo unspecified) > 76.9 µM
Cc1ccccc1-n1ncc2c(SCC(=O)NCc3cccs3)ncnc21 > 76.9 µM
CN(C(=O)COC(=O)c1nc(-c2ccccc2)n(-c2ccccc2)n1)C1CCS(=O)(=O)C1 (stereo unspecified) > 76.9 µM
Clc1ccc(Cl)c(-c2nn3c(COc4ccccc4)nnc3s2)c1 > 76.9 µM
CCOc1ccccc1NC(=O)N1CCC(NC(=O)c2ccccc2C)CC1 > 76.9 µM
Clc1cccc(-c2nnc3sc(-c4ccccc4)nn23)c1 > 76.9 µM
CC(OC(=O)c1cc[n+]([O-])cc1)C(=O)Nc1ccc(Cl)cn1 (stereo unspecified) > 76.9 µM
CC1(C(=O)NC2CCCC2)CCC(=O)N1Cc1ccc2c(c1)OCO2 (stereo unspecified) > 76.9 µM
CCCCNC(=O)c1cc(-c2ccc(OC)cc2)on1 > 76.9 µM
Cc1c(C(=O)O)oc2c1ccc1ccccc12 > 76.9 µM
COc1ccc(N2C(=O)[C@@H]3Cc4ccccc4CN3C2=O)cc1 > 76.9 µM
CCOc1ccc(NC(=O)Cn2nnc(-c3ccccc3NC(=O)CC)n2)cc1 > 76.9 µM
O=C(c1ccc2c(c1)OCO2)N(c1ccc(Cl)cc1)C1C=CS(=O)(=O)C1 (stereo unspecified) > 76.9 µM
CC1(C)NC(=O)N(c2ccccc2Cl)C1(C)NO (stereo unspecified) > 76.9 µM
O=C(CCn1c(=O)sc2ccccc21)Nc1cccnc1 > 76.9 µM
CCn1nnnc1SCC(=O)Nc1nnc(C(C)C)s1 > 76.9 µM
CC(C)N(C(=O)COC(=O)c1ccccc1C(=O)N1CCN(c2ccc(F)cc2)CC1)C(C)C > 76.9 µM
c1ccc(-c2nc3nonc3c3nc4ccccc4n23)cc1 > 76.9 µM
O=C(NC1CCCCCCC1)C1CCN(S(=O)(=O)N2CCCC2)CC1 > 76.9 µM
N#CCSc1nnc(N)s1 > 76.9 µM
O=C(O)Cn1nc(C(F)(F)F)c2c1CCCCC2 > 76.9 µM
CC1CCN(S(=O)(=O)c2cccc(-c3nnc(-c4cccnc4)o3)c2)CC1 > 76.9 µM
O=C(c1oc(=O)c2ccccc2c1-c1ccccc1)N1CCOCC1 > 76.9 µM
CCC(C)(C)n1nnnc1C(c1cccs1)N1CCN(c2nc3ccccc3s2)CC1 (stereo unspecified) > 76.9 µM
O=C(O)COc1ccc2c(-c3ccccc3)cc(=O)oc2c1 > 76.9 µM
Cc1c(NC(=O)CN2c3cccc4cccc(c34)S2(=O)=O)c(=O)n(-c2ccccc2)n1C > 76.9 µM
COC(=O)c1nc(NC2=NCCCCC2)n[nH]1 > 76.9 µM
C=CCn1c(SCc2ccccc2)nnc1-c1cccnc1 > 76.9 µM
Cc1cc2ncn(S(=O)(=O)N3CCCCC3)c2cc1C > 76.9 µM
C=CCN(CC=C)S(=O)(=O)c1ncn[nH]1 > 76.9 µM
Cc1nc(-c2ccccc2O)n(S(=O)(=O)N(C)C)n1 > 76.9 µM
COc1ccccc1NC(=O)CSc1nc2sc(C)c(C)c2c(=O)n1Cc1ccco1 > 76.9 µM
COc1ccc2[nH]c(=O)c(CN(C(=O)c3ccncc3)C(C)(C)C)cc2c1 > 76.9 µM
